# In all, about 81,000 sequences were measured (“one-hybrid fitness for binding NBS DNA”: median about -0.1, highest 2% from about 0.36 on). Some of the results follow.
# B1: Caulobacter ParB omega fusion; a variant is named by its letters at X, in order, B8GW30 (parent)
# chain: MESVVVGEPGMSEGRRGLGRGLSALLGEVDAAPAQAPGEQLGGSREAPIEILQRNPDQPRRTFREEDLEDLSNSIREKGVLQPILVRPSPDTAGEYQIVAGERAWRAAQRAGLKTVPIMVRELDDLAVLEIGIIENVQRADLNVLEEALSYKVLMEKFERTQENIAQTIGKSXSHVANXMRLLXLPDEVQSYLVSGELTAXHARAIAAAADPVALAKQIIEGGLSVRETEALARKAPNLSAGKSKGGRPPRVKDTDTQALESDLSSVLGLDVSIDHRGSTGTLTITYATLEQLDDLCNRLTRGI
# Variants of: B1
# Experiment: one-hybrid fitness for binding NBS DNA (the Noc-binding site; scaled: cognate 1, non-cognate 0); higher = stronger binding
# Conditions: with NBS DNA site
# Summary of the method: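 Selection: bacterial one-hybrid in E. coli USO, HIS3 reporter with the site 19 bp from the promoter, 48 hours at 37°C on M9-minus-histidine plus 0.1 mM IPTG and 5 mM 3-AT. Libraries were Caulobacter ParB with four randomised specificity codons, sequenced on Illumina before and after selection. Fitness is the rescaled log change in variant-to-wild-type read ratio, anchored to the cognate and non-cognate sites.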
row,Variant,one-hybrid fitness for binding NBS DNA
1,PARD,≤ 0.2
2,HSIK,≤ 0.2
3,VLSN,≤ 0.2
4,TRRE,≤ 0.2
5,RFGD,≤ 0.2
6,PFFS,≤ 0.2
7,RQAW,≤ 0.2
8,LRWG,≤ 0.2
9,PIIS,≤ 0.2
10,RSIP,≤ 0.2
11,LMAM,≤ 0.2
12,AQEA,≤ 0.2
13,PAYL,≤ 0.2
14,CDTQ,≤ 0.2
15,YNSP,≤ 0.2
16,FPPN,≤ 0.2
17,RSYC,≤ 0.2
18,CRTV,≤ 0.2
19,QNDA,≤ 0.2
20,GWMR,≤ 0.2
21,IRAI,≤ 0.2
22,FARL,≤ 0.2
23,SDST,≤ 0.2
24,RISC,≤ 0.2
25,RFGG,≤ 0.2
26,NMKE,≤ 0.2

row,Variant,one-hybrid fitness for binding NBS DNA
1,SRAD,≤ 0.2
2,CGAK,≤ 0.2
3,WRLC,≤ 0.2
4,REWM,≤ 0.2
5,PAIN,≤ 0.2
6,LRLN,≤ 0.2
7,SMPV,≤ 0.2
8,FHAY,≤ 0.2
9,RFML,≤ 0.2
10,YMTS,≤ 0.2
11,HCCE,≤ 0.2
12,WPSW,≤ 0.2
13,WYHF,≤ 0.2
14,EQYR,≤ 0.2
15,GRCC,≤ 0.2
16,RIGE,≤ 0.2
17,NSKM,≤ 0.2
18,AKFM,≤ 0.2
19,TELR,≤ 0.2
20,ALSV,≤ 0.2
21,EQAY,≤ 0.2
22,KEKT,≤ 0.2
23,PYLN,≤ 0.2
24,GHKS,≤ 0.2
25,GQWS,≤ 0.2
26,TLKS,≤ 0.2

row,Variant,one-hybrid fitness for binding NBS DNA
1,ASVS,≤ 0.2
2,KWQG,≤ 0.2
3,QMNI,≤ 0.2
4,WRNS,≤ 0.2
5,TMCL,≤ 0.2
6,RKMM,≤ 0.2
7,VNLS,≤ 0.2
8,QVIK,≤ 0.2
9,FLRG,≤ 0.2
10,QGAF,≤ 0.2
11,RMLL,≤ 0.2
12,RKVK,≤ 0.2
13,VWYS,≤ 0.2
14,SRCC,≤ 0.2
15,QRND,0.306
16,LGSE,≤ 0.2
17,KKHC,≤ 0.2
18,LKCG,≤ 0.2
19,TRNE,≤ 0.2
20,RQGY,≤ 0.2
21,PLML,≤ 0.2
22,MHMV,≤ 0.2
23,WILC,≤ 0.2
24,QIDS,≤ 0.2

# — a collection of fitness landscapes (doi:10.1016/j.celrep.2020.107928)
